In a collection of fitness landscapes (doi:10.1016/j.celrep.2020.107928):
In all, about 81,000 sequences were measured (“one-hybrid fitness for binding NBS DNA”: median about -0.1, highest 2% from about 0.36 on). The list shows a part of the results.

B1: Caulobacter ParB omega fusion; a variant is named by its letters at X, in order, B8GW30 (parent)
chain: MESVVVGEPGMSEGRRGLGRGLSALLGEVDAAPAQAPGEQLGGSREAPIEILQRNPDQPRRTFREEDLEDLSNSIREKGVLQPILVRPSPDTAGEYQIVAGERAWRAAQRAGLKTVPIMVRELDDLAVLEIGIIENVQRADLNVLEEALSYKVLMEKFERTQENIAQTIGKSXSHVANXMRLLXLPDEVQSYLVSGELTAXHARAIAAAADPVALAKQIIEGGLSVRETEALARKAPNLSAGKSKGGRPPRVKDTDTQALESDLSSVLGLDVSIDHRGSTGTLTITYATLEQLDDLCNRLTRGI

Variants of: B1
Assay: one-hybrid fitness for binding NBS DNA (the Noc-binding site; scaled: cognate 1, non-cognate 0); higher = stronger binding
Details: with NBS DNA site
Outline: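 The reporter was HIS3, with the binding site 19 bp from the promoter, in E. coli USO used for bacterial one-hybrid selection of Caulobacter ParB libraries with four specificity codons randomised. Growth was on M9 lacking histidine, with 0.1 mM IPTG and 5 mM 3-AT, for 48 hours at 37°C. Illumina sequencing covered plasmids before and after selection; three replicate libraries were pooled and variants with under 10 reads dropped. A fitness score is the log change in variant-to-wild-type read ratio, rescaled to the cognate and non-cognate references.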

Row | Variant | one-hybrid fitness for binding NBS DNA
1 | AIDT | ≤ 0.2
2 | FTRV | ≤ 0.2
3 | NTLR | ≤ 0.2
4 | HTWV | ≤ 0.2
5 | FHKV | ≤ 0.2
6 | QMMK | ≤ 0.2
7 | CYGL | ≤ 0.2
8 | VRGT | 0.27
9 | GIKR | ≤ 0.2
10 | DAIP | ≤ 0.2
11 | SKYN | ≤ 0.2
12 | RQHE | ≤ 0.2
13 | GANV | ≤ 0.2
14 | VLSR | ≤ 0.2
15 | NYCK | ≤ 0.2
16 | QRGK | 0.445
17 | FVNN | ≤ 0.2
18 | AEVY | ≤ 0.2
19 | TMIG | ≤ 0.2
20 | RMGC | ≤ 0.2
21 | EKIS | ≤ 0.2

Row | Variant | one-hybrid fitness for binding NBS DNA
22 | IIGS | ≤ 0.2
23 | TVNK | ≤ 0.2
24 | RGGR | ≤ 0.2
25 | GATS | ≤ 0.2
26 | MCYV | ≤ 0.2
27 | EDVR | ≤ 0.2
28 | RVQF | ≤ 0.2
29 | LHPM | ≤ 0.2
30 | LVWR | ≤ 0.2
31 | STWS | ≤ 0.2
32 | PQPA | ≤ 0.2
33 | DVCS | ≤ 0.2
34 | LCVG | ≤ 0.2
35 | LGNN | ≤ 0.2
36 | EAIT | ≤ 0.2
37 | CNRL | ≤ 0.2
38 | CTLL | ≤ 0.2
39 | EWHT | ≤ 0.2
40 | YLQL | ≤ 0.2
41 | HHWI | ≤ 0.2
42 | SVHR | ≤ 0.2

Row | Variant | one-hybrid fitness for binding NBS DNA
43 | NSDM | ≤ 0.2
44 | WPRT | ≤ 0.2
45 | QHVS | 0.221
46 | TWRS | ≤ 0.2
47 | MYPR | ≤ 0.2
48 | EQQR | ≤ 0.2
49 | MLNL | ≤ 0.2
50 | WSTM | ≤ 0.2
51 | ILFG | ≤ 0.2
52 | GSSA | ≤ 0.2
53 | SGTH | ≤ 0.2
54 | GHWR | ≤ 0.2
55 | LGRY | ≤ 0.2
56 | IFQI | 0.203
57 | CEMF | ≤ 0.2
58 | TLGH | ≤ 0.2
59 | PLIR | ≤ 0.2
60 | NDPQ | ≤ 0.2
61 | RREL | ≤ 0.2
62 | HCSV | ≤ 0.2
63 | QTMM | ≤ 0.2

Row | Variant | one-hybrid fitness for binding NBS DNA
64 | KIES | ≤ 0.2
65 | KPWQ | ≤ 0.2
66 | CRHV | ≤ 0.2
67 | YMTF | ≤ 0.2
68 | LDYW | ≤ 0.2
69 | WIRM | ≤ 0.2
70 | WVPM | ≤ 0.2
71 | DDVG | ≤ 0.2
72 | MARW | ≤ 0.2
73 | MTRW | ≤ 0.2
74 | RTSK | ≤ 0.2
75 | EGQV | ≤ 0.2
76 | DIRY | ≤ 0.2
77 | FKTR | ≤ 0.2
78 | NSWF | ≤ 0.2
79 | MFKC | ≤ 0.2
80 | VFLR | ≤ 0.2
81 | DMVA | ≤ 0.2
82 | FGQY | ≤ 0.2
83 | NCVK | ≤ 0.2
84 | HQSC | ≤ 0.2
